Source: PubChem BioAssay (Tox21)
“And” between values parts separate entries of the source, which are not always exact repeats. Identical values can stand only once. Inconclusive means that the source gave no clear call. Such entries were picked first, then a sample of the others. A potency beside an inconclusive call is a rough fit, not a confirmed value. The source made the active and inactive calls. Calls follow the shape of the dose curve; as a rule, active = well fitted curve in the direction sought with a large enough effect in the repeat runs; inconclusive = weak or mixed curves; inactive = no such curve, though single readings can be large; an effect the other way counts as inactive or inconclusive.

Tests used:
[1] = Caspase-3/7 induction in CHO-K1 cells by small molecules, qHTS cell viability counter screen (AID 1346979); also: nearly all actives have a fitted effect of over 35% in size
Outline: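 Wild-type CHO-K1 cells were seeded at 1,500 per well, rested 5hr at 37 C, then exposed to compounds in DMSO. After 16hr, CellTiter-Fluor reagent was added and fluorescence read 1hr later as the viability measure.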

[2] = Caspase-3/7 induction in HepG2 cells by small molecules, qHTS cell viability counter screen (AID 1346981); also: nearly all actives have a fitted effect of over 30% in size
Outline: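 Treatment of HepG2 cells with DMSO-delivered compounds ran 16 hr at 37 C following a 5-hr pre-incubation of 2,000 cells/well. CellTiter-Fluor fluorescence, read after 1 hr, served as the viability measure in a qHTS format.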

[3] = target: Nuclear receptor subfamily 1 group I member 2 (Homo sapiens) (UniProt O75469); test: Human pregnane X receptor (PXR) small molecule agonists, qHTS assay (AID 1346982); also: nearly all actives have a fitted effect of over 35% in size
Outline: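 Stable HepG2 line reporting PXR-mediated CYP3A4 expression via luciferase. Treatment: 24 hr with compounds in DMSO at 37 C. Detection: ONE-Glo luminescence.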

[4] = target: Nuclear receptor subfamily 1 group I member 2 (Rattus norvegicus) (UniProt Q9R1A7); test: Rat pregnane X receptor (rPXR) activation by small molecules, qHTS assay (AID 1346983); conditions: rPXR luciferase reporter cells, One-Glo luminescence, 24 h; max activation: active compounds read high; also: nearly all actives have a fitted effect of over 20% in size
Outline: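 Luminescent readout (One-Glo luciferase, 30 min room temperature) followed 24 hr compound treatment at 37 C of rPXR cells plated 2,000 per well and preincubated 5hr; qHTS format with compounds delivered in DMSO.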

[5] = target: Nuclear receptor subfamily 1 group I member 2 (Homo sapiens) (UniProt O75469); test: Human pregnane X receptor (PXR) activation by small molecules, qHTS assay (AID 1346985); also: nearly all actives have a fitted effect of over 40% in size
Outline: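 DPX-2 cells (HepG2 co-transfected with a PXR response element and a CYP3A4-promoter luciferase construct) were seeded at 2,000 per well, rested 5 hr at 37C, then exposed to DMSO-dissolved compounds for 24 hr. Activation was read as luciferase luminescence.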

[6] = target: Cytochrome P450 2C19 (Homo sapiens) (UniProt P33261); test: Cytochrome P450 Family 2 Subfamily C Member 19 (CYP2C19) small molecule antagonists: luciferase reporter qHTS assay (AID 1671197); also: nearly all actives have a fitted effect of over 65% in size
Outline: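 CYP2C19 P450-Glo, 1536-well qHTS. Cpd + enzyme/proluciferin substrate 10 min RT; + NADPH regen, 37C 1 h; stop with luciferin detection reagent, 20 min RT, luminescence (RLU). Pos ctrl ketoconazole.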

[7] = target: Cytochrome P450 2D6 (Homo sapiens) (UniProt P10635); test: Cytochrome P450 Family 2 Subfamily D Member 6 (CYP2D6) small molecule antagonists: luciferase reporter qHTS assay (AID 1671196); also: nearly all actives have a fitted effect of over 50% in size
Outline: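 Chemicals tested for interference with CYP2D6 activity; proluciferin substrate, NADPH regeneration, 1 h at room temperature, luminescent detection.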

Measured: Potency
Potency is read from the fitted curve at half-maximal effect; tags tell the direction and shape of the fitted curve.

UniProt P10635, sequence (P10635 whole entry, looked up): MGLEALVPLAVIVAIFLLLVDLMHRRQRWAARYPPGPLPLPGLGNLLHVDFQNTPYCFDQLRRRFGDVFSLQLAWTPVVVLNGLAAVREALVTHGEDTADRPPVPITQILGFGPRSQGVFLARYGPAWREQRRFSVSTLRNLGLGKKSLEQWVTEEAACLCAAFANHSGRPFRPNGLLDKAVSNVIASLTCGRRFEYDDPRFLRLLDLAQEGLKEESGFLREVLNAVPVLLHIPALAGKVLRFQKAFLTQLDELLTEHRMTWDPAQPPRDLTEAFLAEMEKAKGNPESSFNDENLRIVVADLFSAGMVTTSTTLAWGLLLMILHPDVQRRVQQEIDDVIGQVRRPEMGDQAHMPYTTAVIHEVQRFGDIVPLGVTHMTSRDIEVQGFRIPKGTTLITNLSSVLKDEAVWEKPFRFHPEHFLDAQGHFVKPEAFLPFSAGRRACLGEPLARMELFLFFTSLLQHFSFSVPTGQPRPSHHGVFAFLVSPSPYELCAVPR
UniProt P33261, sequence (P33261 whole entry, looked up): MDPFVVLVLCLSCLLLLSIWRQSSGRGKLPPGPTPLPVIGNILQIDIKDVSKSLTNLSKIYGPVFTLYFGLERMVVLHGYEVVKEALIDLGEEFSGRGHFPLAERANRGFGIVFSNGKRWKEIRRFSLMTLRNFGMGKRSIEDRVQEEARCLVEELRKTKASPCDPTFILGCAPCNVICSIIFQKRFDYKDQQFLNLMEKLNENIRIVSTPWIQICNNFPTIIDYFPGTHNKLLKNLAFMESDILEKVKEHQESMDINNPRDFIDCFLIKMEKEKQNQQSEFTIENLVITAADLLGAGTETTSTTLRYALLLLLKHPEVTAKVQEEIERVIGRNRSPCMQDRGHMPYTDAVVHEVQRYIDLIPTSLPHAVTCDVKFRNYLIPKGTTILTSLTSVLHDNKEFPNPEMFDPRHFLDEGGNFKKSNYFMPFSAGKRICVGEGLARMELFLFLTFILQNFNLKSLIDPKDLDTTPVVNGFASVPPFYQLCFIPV
UniProt Q9R1A7, sequence (Q9R1A7 whole entry, looked up): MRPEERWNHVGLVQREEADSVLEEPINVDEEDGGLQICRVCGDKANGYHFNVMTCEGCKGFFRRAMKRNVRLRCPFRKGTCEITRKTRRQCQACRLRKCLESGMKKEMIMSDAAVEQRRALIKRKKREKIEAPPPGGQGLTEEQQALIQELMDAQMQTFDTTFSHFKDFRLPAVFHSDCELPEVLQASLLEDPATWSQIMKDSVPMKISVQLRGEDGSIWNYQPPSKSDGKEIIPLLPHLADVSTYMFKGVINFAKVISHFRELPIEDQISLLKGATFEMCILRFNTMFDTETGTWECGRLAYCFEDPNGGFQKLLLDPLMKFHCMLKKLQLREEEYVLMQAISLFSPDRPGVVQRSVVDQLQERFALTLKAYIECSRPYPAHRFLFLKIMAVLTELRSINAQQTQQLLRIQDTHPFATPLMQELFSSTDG

CC(=O)O[C@]1(C(C)=O)CC[C@H]2[C@@H]3C=C(C)C4=CC(=O)CC[C@]4(C)[C@H]3CC[C@@]21C
inconclusive: [1] 33.5 µM [cytotoxic, single point] | [2] 77 µM [cytotoxic, single point] | [3] 16.8 µM [activator, partial curve] | [4] 8.91 µM [activator, partial curve, poor fit]
inactive: [5]

NC(=O)n1c(O)c(C(=O)c2cccs2)c2cc(Cl)ccc21
inconclusive: [1] 33.5 µM [cytotoxic, single point] | [2] 33.5 µM [cytotoxic] | [3] 11.9 µM [activator, partial curve] | [5] 17.8 µM [activator, single point] | [6] 43.6 µM [inhibitor, single point]

Nc1ccc(O)c(C(=O)O)c1
inconclusive: [1] 68 µM [cytotoxic, single point] and 54.5 µM [cytotoxic, partial curve] and 33.5 µM [cytotoxic, single point] | [2] 30.4 µM [cytotoxic, partial curve] and 24.3 µM [cytotoxic, partial curve] | [3] 68 µM [activator, single point] | [7] 88.6 µM [inhibitor, partial curve, poor fit] and 35.6 µM [inhibitor, partial curve] and 30.9 µM [inhibitor, partial curve, poor fit]
